{"source": "paper PMC6260146", "about": "“Complement Factor H and Apolipoprotein E Participate in Regulation of Inflammation in THP-1 Macrophages” (Frontiers in Immunology, 2018)", "biological_target": "T1, complement Factor H (human, UniProt P08603 19-1231, NT647 (N-hydroxysuccinimide-reactive Red dye) where used as NT647-FH; unlabelled where used as inhibitor or enhancer)", "T1 construct": "complement factor H, 20 domains; The supplier is named for the unlabelled FH of the dilution series; Labelled in a3, unlabelled in a5 and a6; also called FH; NT647-FH; source: bought: Complement technologies", "T1 sequence (P08603 19-1231)": "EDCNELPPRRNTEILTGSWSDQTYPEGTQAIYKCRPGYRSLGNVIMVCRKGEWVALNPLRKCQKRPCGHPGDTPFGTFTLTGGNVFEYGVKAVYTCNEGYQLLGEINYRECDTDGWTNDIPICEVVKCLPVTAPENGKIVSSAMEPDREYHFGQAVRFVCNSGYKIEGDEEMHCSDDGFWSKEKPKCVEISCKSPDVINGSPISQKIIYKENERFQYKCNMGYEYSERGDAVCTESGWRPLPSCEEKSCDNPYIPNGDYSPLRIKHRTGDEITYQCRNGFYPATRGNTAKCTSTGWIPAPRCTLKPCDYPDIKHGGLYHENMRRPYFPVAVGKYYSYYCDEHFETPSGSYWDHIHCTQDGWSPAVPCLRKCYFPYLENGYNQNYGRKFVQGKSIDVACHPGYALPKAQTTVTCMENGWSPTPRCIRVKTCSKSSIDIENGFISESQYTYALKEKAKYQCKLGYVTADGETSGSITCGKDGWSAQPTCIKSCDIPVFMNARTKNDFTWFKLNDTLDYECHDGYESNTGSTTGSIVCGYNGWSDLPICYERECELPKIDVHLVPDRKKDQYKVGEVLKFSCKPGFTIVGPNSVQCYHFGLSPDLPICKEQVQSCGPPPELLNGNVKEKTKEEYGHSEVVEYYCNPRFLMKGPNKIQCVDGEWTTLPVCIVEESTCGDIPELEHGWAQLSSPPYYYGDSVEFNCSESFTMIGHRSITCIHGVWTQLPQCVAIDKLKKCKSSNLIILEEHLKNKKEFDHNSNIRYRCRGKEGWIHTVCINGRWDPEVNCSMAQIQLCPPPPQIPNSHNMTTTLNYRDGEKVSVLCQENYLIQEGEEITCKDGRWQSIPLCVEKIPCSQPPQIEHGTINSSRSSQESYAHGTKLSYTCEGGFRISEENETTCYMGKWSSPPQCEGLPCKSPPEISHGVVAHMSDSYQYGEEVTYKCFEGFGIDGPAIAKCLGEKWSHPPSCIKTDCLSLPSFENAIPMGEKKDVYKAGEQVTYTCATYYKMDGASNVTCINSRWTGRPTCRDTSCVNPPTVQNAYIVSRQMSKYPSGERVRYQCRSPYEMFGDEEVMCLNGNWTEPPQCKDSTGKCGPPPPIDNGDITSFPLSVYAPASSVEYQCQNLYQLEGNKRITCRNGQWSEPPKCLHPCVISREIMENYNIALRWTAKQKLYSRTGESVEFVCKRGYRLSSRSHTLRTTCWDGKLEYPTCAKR", "assay": "flow cytometry on cells; inhibition of NT647-FH (200 nM) binding to CR3 expressing U937 cells by 1.5 μM unlabelled apoE2, apoE3 or apoE4, 4°C; the pair apoE with FH", "conditions": "both partners purified"}
{"binder": "recombinant apolipoprotein E2 (natural protein, NT647 (N-hydroxysuccinimide-reactive Red dye) where used as NT647-apoE; unlabelled as inhibitor, apolipoprotein E, isoform apoE2; also called apoE2; apoE) not shown", "values": [{"measurement": "binding result", "result": "binds"}]}
